Assay results reported in PMC10641178.
These are yes or no findings as the source states them, for the method shown. For some of these results: Binding seen in cells or lysates may run through a third protein. Some binding calls cover weakened binding; strength is not graded here. For some of these results: Tags and fused reporters may be left off the sequences shown. One block for each molecule: values may come before it.

Chains of the proteins cited; added tags and fusions are not shown.
UniProt P20339: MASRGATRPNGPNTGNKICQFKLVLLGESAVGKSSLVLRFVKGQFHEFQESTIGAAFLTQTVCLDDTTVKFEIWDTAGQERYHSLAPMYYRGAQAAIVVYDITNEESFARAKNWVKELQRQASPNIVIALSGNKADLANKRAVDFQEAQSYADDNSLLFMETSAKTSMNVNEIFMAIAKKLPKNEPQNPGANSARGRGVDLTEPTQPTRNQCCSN

What was measured:
[1] = target: T1, hematopoietic PBX–interacting protein (HPIP), endogenous (human (endogenous in MDA-MB231)) (UniProt Q96AQ6); experiment: co-IP; endogenous proteins in MDA-MB231 cells; NP-40 lysis buffer (20 mM Tris pH 8, 137 mM NaCl, 10% glycerol, 1% NP 40, 2 mM EDTA); immunoprecipitation overnight at 4 °C, agarose A/G beads, Western blot
T1 sequence: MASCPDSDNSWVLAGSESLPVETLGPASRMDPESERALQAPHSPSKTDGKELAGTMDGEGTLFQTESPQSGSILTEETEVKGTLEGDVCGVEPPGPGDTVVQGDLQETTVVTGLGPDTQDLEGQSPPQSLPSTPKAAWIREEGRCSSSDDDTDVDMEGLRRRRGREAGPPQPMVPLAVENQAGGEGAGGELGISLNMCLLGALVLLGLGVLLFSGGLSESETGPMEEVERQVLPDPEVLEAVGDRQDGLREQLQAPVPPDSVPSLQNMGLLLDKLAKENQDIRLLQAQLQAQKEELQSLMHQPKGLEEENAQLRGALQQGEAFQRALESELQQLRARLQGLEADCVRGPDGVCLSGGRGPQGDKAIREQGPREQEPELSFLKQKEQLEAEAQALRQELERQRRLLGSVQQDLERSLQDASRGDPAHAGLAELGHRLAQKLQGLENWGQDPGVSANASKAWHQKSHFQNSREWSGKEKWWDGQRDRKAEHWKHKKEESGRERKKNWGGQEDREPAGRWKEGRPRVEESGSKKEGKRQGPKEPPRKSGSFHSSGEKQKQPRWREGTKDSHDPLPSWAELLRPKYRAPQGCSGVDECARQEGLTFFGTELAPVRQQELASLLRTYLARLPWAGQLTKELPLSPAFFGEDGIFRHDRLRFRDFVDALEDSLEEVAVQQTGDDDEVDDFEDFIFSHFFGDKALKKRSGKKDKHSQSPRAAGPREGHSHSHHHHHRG

[2] = target: T2, GST-CC1 (coiled-coil domain 1 of HPIP) (UniProt Q96AQ6); experiment: pull-down; GST-CC1 or GST-CC2 beads with purified His-Rab5 or His-RUFY3, 1:2 M ratio, room temperature 30 min, 150 mM NaCl, 50 mM Tris pH 8; Western blot; both purified
T2 sequence: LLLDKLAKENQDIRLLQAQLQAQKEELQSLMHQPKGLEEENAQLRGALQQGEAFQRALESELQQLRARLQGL

[3] = target: T3, GST-CC2 (coiled-coil domain 2 of HPIP) (UniProt Q96AQ6); experiment: as above
T3 sequence: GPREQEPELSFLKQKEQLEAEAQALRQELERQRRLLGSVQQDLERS

His-RUFY3 (full length) [4] = target: T4, His-RUFY3 (full length) (UniProt Q7L099); experiment: pull-down; His-Rab5 or His-RUFY3 beads with 10 μl in vitro translated 35S-labelled HPIP or its CC deletion mutants; binding buffer 25 mM Tris–HCl pH 8, 50 mM NaCl, 10% glycerol, 0.1% NP 40; five washes; SDS-PAGE and autoradiography; only the target purified
T4 sequence: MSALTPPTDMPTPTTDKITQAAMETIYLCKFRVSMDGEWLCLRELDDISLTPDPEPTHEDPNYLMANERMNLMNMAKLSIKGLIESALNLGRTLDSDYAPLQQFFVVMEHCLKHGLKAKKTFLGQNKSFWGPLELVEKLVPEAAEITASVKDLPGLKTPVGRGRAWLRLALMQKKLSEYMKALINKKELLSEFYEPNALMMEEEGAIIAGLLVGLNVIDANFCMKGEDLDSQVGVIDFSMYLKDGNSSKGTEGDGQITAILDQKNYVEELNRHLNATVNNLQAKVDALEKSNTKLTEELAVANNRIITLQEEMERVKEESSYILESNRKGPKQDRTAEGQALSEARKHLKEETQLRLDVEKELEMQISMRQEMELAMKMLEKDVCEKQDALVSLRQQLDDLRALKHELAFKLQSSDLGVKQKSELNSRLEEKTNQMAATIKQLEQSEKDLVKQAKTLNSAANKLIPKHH

His-Rab5 (full length) = His-Rab5 (full length) (UniProt P20339); experiment: as above
[5] = target: T5, His-tagged RUN domain of RUFY3 (UniProt Q7L099); experiment: pull-down; in vitro pull-down of HPIP with His-tagged wt RUFY3 and RUFY3 domains (CC, RUN, FYVE); conditions not given
T5 sequence: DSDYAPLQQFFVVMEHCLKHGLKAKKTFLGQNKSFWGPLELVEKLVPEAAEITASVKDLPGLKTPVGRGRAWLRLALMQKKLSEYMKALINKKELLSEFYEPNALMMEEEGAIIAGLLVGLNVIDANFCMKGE

His-RUFY3 (full length) [6] = target: T4, His-RUFY3 (full length); experiment: as above

Molecule: His-Rab5 (full length) (from UniProt P20339 1-215)
binding [2]: binds
binding [3]: no binding

B3: RUN FYVE domain–containing protein 3 (RUFY3), endogenous (protein, UniProt Q7L099 1-469)
chain: T4 sequence
binding [1]: binds

B4: His-RUFY3 (full length) (protein, UniProt Q7L099 1-469)
chain: T4 sequence
binding [2]: binds
binding [3]: binds

Continued, values first:

binding [1]: binds
Molecule: Rab5, endogenous (from UniProt P20339 1-215)

binding (His-RUFY3 (full length) [4]): binds
binding (His-Rab5 (full length)): binds
B1: wtHPIP, in vitro translated, S35-Met labelled (protein, UniProt Q96AQ6 1-731)
chain: T1 sequence
modifications: 35S-methionine labelled

binding [5]: no binding
binding (His-RUFY3 (full length) [6]): binds
B2: HPIP used in the in vitro pull-down with RUFY3 domains (Figure 4I) (protein, UniProt Q96AQ6 1-731)
chain: T1 sequence
